Results published in the supplement of paper PMC11417369.
This is one part of the list.

Tested on: PfSIP2 AP2 domain 1 (GST-tagged)
Experiment: gcPBM binding intensity (ln(normalized median fluorescence intensity)); higher = stronger DNA binding
Summary of the method: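 Alexa488 anti-GST antibody, scanned at 488 nm, detected GST-tagged P. falciparum DNA-binding domains that had been expressed in E. coli and incubated for 1 h on an Agilent 4 × 180k array. The array carried primer-extended double-stranded 36-bp intergenic genomic probes and negative controls. Binding intensity is the highest Masliner-normalised natural-log median intensity across replicate spots of either orientation of each probe.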

Compared with ATATATTTTTATGTAGTGCATTTAAATAATAAATGC, “ATATATATATAATGAAGTACGAAAAAATAAGAAATG [XGTACX_site4001]” is lower in “gcPBM binding intensity (ln)” value: 8.42 for the first, 8.33 for the second.

Going from “ACCTCATAATATTTAACACACAAAATTATATGTATG [CACACA_site1704]” to “ATTCTAAATAAATGTACACACAAAAATAAATGTATA [CACACA_site1732]”, the “gcPBM binding intensity (ln)” value rises from 7.3 to 7.34.

First: AAAAAAAAAAAGATAAATACAAGTTACACAAAAAAA [GTGCAC_negctrl_site664]
Second: ACGTTGCGACGCAAGGTGCTTATTTTCTTATAAATA
The “gcPBM binding intensity (ln)” value of the first is lower: 6.78 for the first, 8.02 for the second.

Compared with “AACAAATTTTTTATTAAACACACAAACATATATATA [CACACA_site8588]”, “GCTCATTGAAATTATACACACCAAATATATAAATAT [CACACA_site5385]” is lower in “gcPBM binding intensity (ln)” value: 7.27 for the first, 7.22 for the second.

Going from “TGTGAATATATCTTTAAAAAGGATAAATAATAATTT [CACACA_negctrl_site507]” to “TATGAATATTGCATGTGTACCTATTATCCTTTTAAA [XGTACX_site4311]”, the “gcPBM binding intensity (ln)” value rises from 6.76 to 7.05.

Going from “ATAATTATTTTCCCGTGTACTTATTTTTTTCAAGTA [XGTACX_site8843]” to “ATATAAAATAAAAAAAAAAAAAAAAAAAAAAAAAAA [CACACA_negctrl_site1234]”, the “gcPBM binding intensity (ln)” value falls from 7.53 to 6.92.

Going from “TTAATGTTTGAAAGAGTGCACATAACAAAAAAAAAA [GTGCAC_site9623]” to “TTTTTGTATCCTTTTAATATTAAATAAAAGGAATGT [CACACA_negctrl_site1468]”, the “gcPBM binding intensity (ln)” value falls from 11.1 to 7.02.

Going from “TAATTAAAAAATGAATAAATGAATAAATAAATAAAT [CACACA_negctrl_site838]” to “CAATAAATAATAAATACATGCAAGTATGAAGATATA [TGCATGCA_site859]”, the “gcPBM binding intensity (ln)” value falls from 6.75 to 6.73.

First: TGTTTGATGGTACACGTACACACCTTGCAAATATTT [CACACA_site888]
Second: AATATAAAATAGAAAAATGAAAAAAAAAAAAAGGGT [CACACA_negctrl_site1263]
The “gcPBM binding intensity (ln)” value of the first is lower: 7.36 for the first, 7.54 for the second.

Going from “TATATATATTTTAACACACACATATATATATTTATA [CACACA_site2765]” to “AATAAGAATTAAAAATGTACAAAAAAATGTATTTAT [XGTACX_site8005]”, the “gcPBM binding intensity (ln)” value falls from 7.28 to 6.89.

Going from “AAGTATAAAATATTTTGTACTTAAAAAATTATATGG [XGTACX_site2180]” to “CATGTTATATATATATGTACTAAAAATATAATATAA [XGTACX_site1978]”, the “gcPBM binding intensity (ln)” value falls from 7.07 to 7.03.

First: AGTGGGATTTTTAATTGTACATAAATAATATCATAA [XGTACX_site4163]
Second: TTTTTTTTTTTTGGTAGTACATAAATATTTTATGGA [XGTACX_site6851]
The “gcPBM binding intensity (ln)” value of the first is lower: 6.92 for the first, 6.96 for the second.

Going from “TTTGCAACATATAAAAGTACAAATAATATATTTATT [XGTACX_site890]” to “TTTATTATATGCACACGTACATATAATATATATATA [XGTACX_site4108]”, the “gcPBM binding intensity (ln)” value rises from 7.01 to 8.68.

First: AGCAGTTTTTTTTTTTTTTTTTTTTTTATTAAAAGC [XGTACX_negctrl_site392]
Second: ATAATAAATCATCATATTACATTTATCTTTGTTGGA [CACACA_negctrl_site849]
The “gcPBM binding intensity (ln)” value of the first is lower: 6.87 for the first, 7.04 for the second.

First: TACTTATTTTTATAGCATTTCACGGAGGTAGTAATA [CACACA_negctrl_site468]
Second: AACTGTAATTTTATACGTACATAAATAATATTATAT [XGTACX_site4277]
The “gcPBM binding intensity (ln)” value of the first is lower: 7.07 for the first, 7.28 for the second.

Compared with “AACATAATATCATATACACACAAAAATATTGAAATA [CACACA_site2160]”, “ATAATACCCATTATCTTACAACAAAATGCAAACAAA [CACACA_negctrl_site1037]” is higher in “gcPBM binding intensity (ln)” value: 6.9 for the first, 7.18 for the second.

Compared with “TTATATAACTTTTCTAGTACTTGTATAAATTCCTAC [XGTACX_site3685]”, “AAAAAAAAAGAAAAACGTACGTTTATTTAATATATA [XGTACX_site4018]” is lower in “gcPBM binding intensity (ln)” value: 6.93 for the first, 6.8 for the second.

First: AAGAACATATTATATACATGCATAATTCGATAGATT [TGCATGCA_site882]
Second: AAAATTAGATTATGCACACACACTTAAAAATAATAA [CACACA_site1975]
The “gcPBM binding intensity (ln)” value of the first is lower: 6.86 for the first, 8.5 for the second.

Compared with “TTAAAATATGTAGCTACACACACATAAACAAAATAA [CACACA_site8244]”, “TAATTATAATAATAACGTACATATATAAAATGGTGA [XGTACX_site8434]” is higher in “gcPBM binding intensity (ln)” value: 7.1 for the first, 7.21 for the second.

Going from “TTTTTTTTTCTGAATTTATAATTCAAAAATATATAT [CACACA_negctrl_site300]” to “TGTAGTCTGGAGAAAAGTACACAGTATCTGGTAGCT [XGTACX_site2012]”, the “gcPBM binding intensity (ln)” value rises from 6.83 to 6.95.

Going from TATATATATATATAGGTGCTATAATTTATATACACA to “TTTTATTTTTTCTATACATGCATGTCCAATTTTCTT [TGCATGCA_site304]”, the “gcPBM binding intensity (ln)” value falls from 9.36 to 7.06.

First: TTATGGTATAAAAAAATACACACTTATATATATTCT [CACACA_site488]
Second: AAAAAAAAAAAAAACACACATACACGCCCACCCATA [CACACA_site3391]
The “gcPBM binding intensity (ln)” value of the first is lower: 6.83 for the first, 7.48 for the second.

Compared with “GTTTTTTTATAAAATTTTTATATAATTCTTTTATAA [CACACA_negctrl_site1605]”, “ATATATAAGAACATATATATTGGAAATATTGAATTT [XGTACX_negctrl_site121]” is lower in “gcPBM binding intensity (ln)” value: 6.99 for the first, 6.93 for the second.

Compared with “TAATAATAAAAAATACGTACATATTATTTATATATG [XGTACX_site853]”, “CATTTTATTCTATATGCATGTTAAAAAATGTGTTGA [TGCATGCA_site128]” is lower in “gcPBM binding intensity (ln)” value: 7.26 for the first, 7.12 for the second.

Compared with “AATAAAAATATTATATGTACATATTTTAATATATAT [XGTACX_site1259]”, “AAAACTATATTAATGTGTACACATCAAAATATTAAT [XGTACX_site6767]” is higher in “gcPBM binding intensity (ln)” value: 7 for the first, 7.42 for the second.

First: CAAAATTATCAGAATCGTACATTTTTAACATATAAT [XGTACX_site7909]
Second: TTACAAAACACTTATACACACATATATATATATATA [CACACA_site2716]
The “gcPBM binding intensity (ln)” value of the first is lower: 6.83 for the first, 9.45 for the second.

First: TAATATATTAAAAATAGTACATAAGAAAAATAAGTA [XGTACX_site7957]
Second: ATATTTATTTTAATTTTTCTATATAAACTATTATGA [CACACA_negctrl_site739]
The “gcPBM binding intensity (ln)” value of the first is higher: 7.11 for the first, 6.91 for the second.

Going from “AGGAAGGAAATAAATCAACACACATATATTATATAT [CACACA_site8678]” to “TATATATATTATATATGTACATATTGTATATTTTTG [XGTACX_site4564]”, the “gcPBM binding intensity (ln)” value rises from 7.04 to 7.67.

Compared with “ATTATAAATATCAGTGCACACATTTCTACGCAAAGT [CACACA_site4420]”, “TATGTAAAATGTGTTTGTACTTATTTATTATATAAA [XGTACX_site2816]” is lower in “gcPBM binding intensity (ln)” value: 10.4 for the first, 6.83 for the second.

Going from “AAGGAGCCTATGAACACACACATGTACAGATATTAA [CACACA_site6107]” to “TGTATTTATAGACACACACACTTTCTTTTTTTAAGA [CACACA_site7010]”, the “gcPBM binding intensity (ln)” value rises from 7 to 7.04.

Compared with “AACAATTAGAACTTTGCACACTTCTATATATTTTGT [CACACA_site674]”, “TACATATATAAAAAAACACACACATATATATATATA [CACACA_site8315]” is higher in “gcPBM binding intensity (ln)” value: 7.13 for the first, 9.02 for the second.

Going from “TGTATAATAAGGAAGAGTACAAGTAAATACACACAT [XGTACX_site2084]” to “TATATATATAACATTGTACACACAAAGAAATAATAT [CACACA_site8998]”, the “gcPBM binding intensity (ln)” value rises from 7.07 to 8.18.

First: ATCGGTATATTATTACATGAATAAACTTACACACAC [TGCATGCA_negctrl_site21]
Second: TATATATAAAATGTATGTACATATTTATTTATATAG [XGTACX_site657]
The “gcPBM binding intensity (ln)” value of the first is higher: 8.04 for the first, 6.87 for the second.

First: AAGTGAAATAAAATATGTACATATATGTATATATAA [XGTACX_site4473]
Second: TTTTTTCTTCGTGTATTAAGTCACAATAGGAAAAAA [GTGCAC_negctrl_site644]
The “gcPBM binding intensity (ln)” value of the first is lower: 6.97 for the first, 7.09 for the second.

Compared with “AAAAAAAAAGAATGTGAACACACACCGTGAATATAA [CACACA_site8342]”, “ATGGAAATAAAAAAAAAAAAAAAAAAAAATATATAT [GTGCAC_negctrl_site67]” is higher in “gcPBM binding intensity (ln)” value: 6.62 for the first, 7.18 for the second.

Going from “TAGCCCACATTTAATGGTACAGTGAGTATATATATG [XGTACX_site8044]” to “TACATAAAATACCATGCATGCTAGTAAAAAAAAAAA [TGCATGCA_site650]”, the “gcPBM binding intensity (ln)” value falls from 6.99 to 6.8.

Compared with “TAATATATTTATAGAGCATGCAACGTAATATTATTA [TGCATGCA_site863]”, “AAAATGCATTTGATGTGTACGCATTATAAAGAACAA [XGTACX_site4203]” is higher in “gcPBM binding intensity (ln)” value: 7.12 for the first, 7.31 for the second.

First: CAAATAGCTAGCTGTGCACACAAACATATTTTCCAA [CACACA_site879]
Second: CACAAACAAAGACACACACACACACGCACAAAAATG [CACACA_site7193]
The “gcPBM binding intensity (ln)” value of the first is higher: 8.69 for the first, 7.25 for the second.

Going from “CATATATACTCATACACACACACACCGACACAGACA [CACACA_site5026]” to “ATGATATGGATAAATACACACAATATAATAATGTCT [CACACA_site1433]”, the “gcPBM binding intensity (ln)” value falls from 7.33 to 6.99.

First: TATGATGAGATAACAAAAGTTGTACTTTTTTTTTTT [CACACA_negctrl_site1172]
Second: ATATTTTTTAGGGTCACACATACTTATTATATAAAT [CACACA_site4926]
The “gcPBM binding intensity (ln)” value of the first is lower: 6.99 for the first, 7.11 for the second.

First: AATATTTAACACCTTATACACACTTTCTTCCTTTTT [CACACA_site785]
Second: AAAGCACGCAAGAATACACACAAATATTATAAAAAA [CACACA_site6206]
The “gcPBM binding intensity (ln)” value of the first is lower: 6.9 for the first, 6.94 for the second.

Compared with “ATCCCAGTAATATATAGTACATAACTATAAGAGAAT [XGTACX_site6909]”, “TAAAAAATTATAAAATGTACATAAAAAAAAAAAAAA [XGTACX_site3376]” is higher in “gcPBM binding intensity (ln)” value: 7.09 for the first, 7.13 for the second.

Going from “CTGAAGAAACTACAACGTACAAAATATGTATATATT [XGTACX_site3779]” to “AGGAAAACAAAAGATGCATGCTAATTTTCCTCGCGT [TGCATGCA_site627]”, the “gcPBM binding intensity (ln)” value falls from 6.79 to 6.59.

First: AAAATTAATAAATGAGAAAAAAGGATGAATAATGAG [CACACA_negctrl_site1614]
Second: AGAAAAAAAATGTATACACACAAATATAAAGAAGGA [CACACA_site3806]
The “gcPBM binding intensity (ln)” value of the first is higher: 7.43 for the first, 7.41 for the second.
